Test results taken from publication PMC7819943, “Rice protein-binding microarrays: a tool to detect cis-acting elements near promoter regions in rice”.
This is one part of the list.

target: T1, OsWOX13 (Oryza sativa, UniProt Q5QMM3 1-267); test: protein-binding microarray (RPBM); PBS, 2% BSA, 51.3 ng/ul salmon testes DNA, 50 uM zinc acetate, 200 nM TF, 25 C, 1 h; high values mean tight binding; conditions: protein: recombinant; tags: N-terminal polyhistidine and DsRed monomer fusion (pET32a); label: CyDye5-dUTP incorporated in the synthesized complementary strand; 3' TTTTT single-stranded linker to array surface; dsDNA, one strand shown
T1 sequence: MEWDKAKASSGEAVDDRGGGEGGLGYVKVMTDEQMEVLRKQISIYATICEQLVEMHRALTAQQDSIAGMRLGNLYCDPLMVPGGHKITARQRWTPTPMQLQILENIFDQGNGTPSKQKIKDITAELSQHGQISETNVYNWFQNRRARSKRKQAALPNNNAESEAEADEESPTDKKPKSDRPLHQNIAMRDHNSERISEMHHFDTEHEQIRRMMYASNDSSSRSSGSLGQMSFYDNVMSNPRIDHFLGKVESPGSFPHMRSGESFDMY
Method in brief: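 For the binding signal, per-feature fluorescence intensity was read in arbitrary units on an Axon 4000B scanner. Before scanning, a 2% BSA-blocked custom Agilent array made double-stranded with Cy5-dUTP was washed after 1 h at 25 °C with 200 nM protein and 50 µM zinc acetate. The proteins were Ni–NTA-purified transcription factors with N-terminal polyhistidine and DsRed fusions, expressed in E. coli BL21-CodonPlus.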

Sequence	binding signal
GAGTAATAATTGTACTCTATTATCAATTTGTTATTATGTACGGAGTCACCTAGTGCAG	12600 fluorescence intensity (a.u.)
ACCAAATTTCCTAGAAAATTAGGAGTGTCTGGTTGGTTTCCGGAGTCACCTAGTGCAG	5400 fluorescence intensity (a.u.)
TTTTCTTGACTGATAGAAGAGTCAAAAGTTTGTGAGCAAACGGAGTCACCTAGTGCAG	8150 fluorescence intensity (a.u.)
AGGTCAATTAAGCGGCCTCCTACCGTACCACACAACTACACGGAGTCACCTAGTGCAG	7080 fluorescence intensity (a.u.)
GACAAGATCAGTCCTAATTATATATATGTTTTACCTTCTACGGAGTCACCTAGTGCAG	4490 fluorescence intensity (a.u.)
AATCAATCAATTAGTTAGAGATCAAGTTATTAGTGTCCAACGGAGTCACCTAGTGCAG	31100 fluorescence intensity (a.u.)
CATCTATACATATAATTAGTTAGGTATGTAATCATGGATTCGGAGTCACCTAGTGCAG	3440 fluorescence intensity (a.u.)
ATCGTAGTGTAATTACACTGTAACTTATATGTAATTACACCGGAGTCACCTAGTGCAG	12100 fluorescence intensity (a.u.)
GTGTAATTACACTATAATTGCACTATAATTATATCTGTCACGGAGTCACCTAGTGCAG	61500 fluorescence intensity (a.u.)
TGTGTTTGATCAATCAGCTCCAAACTTTCGTTATTTATTTCGGAGTCACCTAGTGCAG	7050 fluorescence intensity (a.u.)
CACGTAGGCGCTAATTAGGGCACCCACAATGGTTATCTATCGGAGTCACCTAGTGCAG	4920 fluorescence intensity (a.u.)
TCCTATAGAAAATTTTCCTATTTGACCCTTTGATTCAAATCGGAGTCACCTAGTGCAG	3540 fluorescence intensity (a.u.)
TTTTGATTTGGGAAGGGAGGTGCATGGGTATAGCATAAAGCGGAGTCACCTAGTGCAG	5280 fluorescence intensity (a.u.)
CGGTGGGATTGGTTTAACGTGGGTGCTAATGGGGAAGCTACGGAGTCACCTAGTGCAG	15300 fluorescence intensity (a.u.)
TGCTTGGAATCAATTACCTGCTCACGCAAAGAGGAGAGGCCGGAGTCACCTAGTGCAG	4220 fluorescence intensity (a.u.)
TTGGATTAATTGCCAAGGAATTGTGGAGTCATGTAGTAGTCGGAGTCACCTAGTGCAG	42200 fluorescence intensity (a.u.)
TAAATAGAATTTATAATTTCTTCTAATAAAACGAATAGTTCGGAGTCACCTAGTGCAG	5240 fluorescence intensity (a.u.)
GTAAGTTTCATAAATTACACTGTAATTTACAAGAAAACACCGGAGTCACCTAGTGCAG	11100 fluorescence intensity (a.u.)
ATTGATTTCTCAGTCCATGGGCCATGAGTATGTTCTGGAGCGGAGTCACCTAGTGCAG	10900 fluorescence intensity (a.u.)
TACTCATGATTACGTAAATAATGAGAGACGCTATTTACTCCGGAGTCACCTAGTGCAG	16500 fluorescence intensity (a.u.)
TATATGTCTGATTGCTATTCCAGCCTCTAGCAGCACAGAACGGAGTCACCTAGTGCAG	15500 fluorescence intensity (a.u.)

Sequence	binding signal
ACTTAAATTAAACACTAAGGATGCATTATTTTCAACTCATCGGAGTCACCTAGTGCAG	3780 fluorescence intensity (a.u.)
TCGGATGAGTGGCTTATAGATTTGAATTTGATGGTCTGCTCGGAGTCACCTAGTGCAG	3620 fluorescence intensity (a.u.)
TGGGTGATTGATTAGTACTACTGCTGCATCTGCACTGCATCGGAGTCACCTAGTGCAG	38400 fluorescence intensity (a.u.)
TTTGACGGTAAATTGACCATTCTTATGGAGCGACCATACACGGAGTCACCTAGTGCAG	28000 fluorescence intensity (a.u.)
AAGAAATGCGAATAATTAACTGGCTAAACTGTTTGGGTGGCGGAGTCACCTAGTGCAG	21900 fluorescence intensity (a.u.)
TGAAAATGATTTGGGATGGCATTTCAGCGGGTTGGGCTCACGGAGTCACCTAGTGCAG	22000 fluorescence intensity (a.u.)
ACTGCCCCTGATTAATTCTAATTATTTACCTGAATTGCCACGGAGTCACCTAGTGCAG	32100 fluorescence intensity (a.u.)
CATAATATTGATTGATGCGTGTGAAACATGAACAAGCTTCCGGAGTCACCTAGTGCAG	47900 fluorescence intensity (a.u.)
GTCACTAGCTTGATTAATGTGGCACTTTCAGATGCTGCCTCGGAGTCACCTAGTGCAG	4950 fluorescence intensity (a.u.)
TTATGTTGGGAAGATTGATAGGGAGTGATCGCCTCACTGGCGGAGTCACCTAGTGCAG	12900 fluorescence intensity (a.u.)
TATGTATGCATTGATTGCTAAACATTTTCACATGTGCATTCGGAGTCACCTAGTGCAG	14700 fluorescence intensity (a.u.)
CGGAATTGCAACAATAATCATAGCAGCCGCGCGAAACGACCGGAGTCACCTAGTGCAG	5200 fluorescence intensity (a.u.)
GATAATTTTCTCCGTTATCATTACATCAAACTGTTAGGTCCGGAGTCACCTAGTGCAG	21000 fluorescence intensity (a.u.)
TGGAACTTAATTTGAAAACAGAGGGTGTATTCTGCAACTCCGGAGTCACCTAGTGCAG	5070 fluorescence intensity (a.u.)
AGCAATTATTGTATGAATTGGCTATTACATTAGCTATAAACGGAGTCACCTAGTGCAG	6390 fluorescence intensity (a.u.)
CCAAGGGGTGCTAAATGGGGCTAATTTTGTGTGGGGACCACGGAGTCACCTAGTGCAG	3500 fluorescence intensity (a.u.)
TTAATTGATTCCATGAAGGTATAATGATACTTTTATGGTACGGAGTCACCTAGTGCAG	65000 fluorescence intensity (a.u.)
GCACGCTCAATTACCATACACATCAGCTAACAAGTAATAACGGAGTCACCTAGTGCAG	5130 fluorescence intensity (a.u.)
TCACTGACGAACAATCTGATTCGCGTACACATGCTGGCCCCGGAGTCACCTAGTGCAG	6520 fluorescence intensity (a.u.)
AGTAAATAATTAAACTAGACTTAACCCTTCCTTCCAAATTCGGAGTCACCTAGTGCAG	6310 fluorescence intensity (a.u.)
TAAACTAATTTGGTGGTCGTGATTCCTACCACTTTTATTTCGGAGTCACCTAGTGCAG	12700 fluorescence intensity (a.u.)
